# According to the supplement of paper PMC8728848:
# The list shows a part of the results.
# B1: PX14343H-pdi-506-26-506 (Parabacteroides distasonis) (protein)
# chain: QPTGTMTTDSKLTSKESALALTNSAYLKNTVFNKMTPGWGCNTILLLEYMTGKATSENSQSNYKDFQDLLVSDRSLYIEDWWQDCYAGIANCNLALQKLGEFENLDASLVNGYMAEVKFMRALYYFYLVRIFGDVPKITTVQSELGELQVSRAPVKEIYDEIIIPDLLEAEQSDLAFSDHTGRVSMGAVKALLADVYLTYAGYPLQGGKSYYAESAKRSLEVIKSNEYTLFTDYESLRLPSQNNKGEFIYQVQFSLNKRHNESVRIFLPSRSGISAYDLEYGSLIPTKEFVESFEKGDKRTEEKQYFFTNYKGHPSKFSPGAAELEFMDLNGYYIYKFFDQVAVDNTAKSDLNWSVYRYTDVLLMYAEAQVNADGTPNQQSIDIVNQIRGRAGLAPFKQTNASAFLEEVWDQRYFDLCYENKMWFDMLRTRKIRDDKSGEYVDFIGYKTNWGKVYTETQLLFPIPLSERQANPNLTQNQGY
# Legend:
# Assay in all cases: glycan array binding signal (z-score within array); higher = stronger binding
# Conditions in all cases: glycan notation: IUPAC condensed, linker removed
# [1] = target: Gal6S(b1-4)Glc6S
# In short: (§1)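 Columns mapping to the same glycan were averaged after glycan names were converted to IUPAC-condensed notation. The data come from 3228 arrays in the Consortium for Functional Glycomics database, limited to those with an available protein sequence. Binding is reported as a within-array Z-score averaged across arrays of one protein sequence and across linkers.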
# [2] = target: Gal6S(b1-4)GlcNAc
# In short: as §1
# [3] = target: Gal6S(b1-4)GlcNAc6S
# In short: as §1
# [4] = target: GalNAc(a1-3)Gal
# In short: as §1
# [5] = target: GalNAc(a1-3)GalNAc
# In short: as §1
# [6] = target: GalNAc(a1-3)GalNAc(b1-3)Gal(a1-4)Gal(b1-4)Glc
# In short: as §1
# [7] = target: GalNAc(a1-3)GalNAc(b1-3)Gal(a1-4)Gal(b1-4)GlcNAc
# In short: as §1
# [8] = target: GalNAc(b1-3)Gal
# In short: as §1
# [9] = target: GalNAc(b1-3)Gal(a1-4)Gal(b1-4)GlcNAc
# In short: as §1
# [10] = target: GalNAc(b1-3)Gal(a1-4)Gal(b1-4)GlcNAc(b1-3)Gal(b1-4)Glc
# In short: as §1
# [11] = target: GalNAc(b1-3)Gal(a1-6)Gal(b1-4)Glc
# In short: as §1
# [12] = target: GalNAc(b1-3)GalNAc
# In short: as §1
# [13] = target: GalNAc(b1-3)GlcNAc
# In short: as §1
# [14] = target: GalNAc(b1-4)Gal(b1-4)Glc
# In short: as §1
# [15] = target: GalNAc(b1-4)GlcNAc
# In short: as §1
# [16] = target: GalNAc(b1-4)GlcNAc(b1-2)Man
# In short: as §1
# [17] = target: GalNAc(b1-4)GlcNAc(b1-2)Man(a1-3)[GalNAc(b1-4)GlcNAc(b1-2)Man(a1-6)]Man(b1-4)GlcNAc(b1-4)GlcNAc
# In short: as §1
# [18] = target: GalNAc(b1-4)GlcNAc(b1-3)GalNAc(b1-4)GlcNAc
# In short: as §1
# [19] = target: GalNAc(b1-4)GlcNAc6S
# In short: as §1
# [20] = target: GalNAc(b1-6)GalNAc
# In short: as §1
# [21] = target: GalNAc3S(b1-4)GlcNAc
# In short: as §1
# [22] = target: GalNAc3S(b1-4)GlcNAc3S
# In short: as §1
# [23] = target: GalNAc3S(b1-4)[Fuc(a1-3)]GlcNAc
# In short: as §1
# [24] = target: GalNAc4S6S(b1-4)GlcNAc
# In short: as §1
# [25] = target: GalNAc6S(b1-4)GlcNAc
# In short: as §1
# [26] = target: Glc(a1-4)Glc
# In short: as §1
# [27] = target: Glc(a1-4)Glc(a1-4)Glc(a1-4)Glc
# In short: as §1
# [28] = target: Glc(a1-6)Glc(a1-6)Glc
# In short: as §1
# [29] = target: Glc(a1-6)Glc(a1-6)Glc(a1-6)Glc
# In short: as §1
# [30] = target: Glc(b1-4)Glc
# In short: as §1
# [31] = target: Glc(b1-6)Glc
# In short: as §1
# [32] = target: GlcA(b1-3)Gal
# In short: as §1
# [33] = target: GlcA(b1-3)GlcNAc
# In short: as §1
# [34] = target: GlcA(b1-6)Gal
# In short: as §1
# [35] = target: GlcA3S(b1-3)Gal(b1-4)GlcNAc(b1-2)Man
# In short: as §1
# [36] = target: GlcA3S(b1-3)Gal(b1-4)GlcNAc(b1-3)Gal(b1-4)Glc
# In short: as §1
# [37] = target: GlcNAc(a1-3)Gal(b1-4)GlcNAc
# In short: as §1
binder,measurement,setting,value
B1,glycan array binding signal (z-score),[1],0.667
same,glycan array binding signal (z-score),[2],1.27
same,glycan array binding signal (z-score),[3],-0.324
same,glycan array binding signal (z-score),[4],1.07
same,glycan array binding signal (z-score),[5],-0.058
same,glycan array binding signal (z-score),[6],-0.378
same,glycan array binding signal (z-score),[7],-0.484
same,glycan array binding signal (z-score),[8],0.069
same,glycan array binding signal (z-score),[9],-0.287
same,glycan array binding signal (z-score),[10],-0.107
same,glycan array binding signal (z-score),[11],-0.047
same,glycan array binding signal (z-score),[12],0.076
same,glycan array binding signal (z-score),[13],-0.219
same,glycan array binding signal (z-score),[14],0.09
same,glycan array binding signal (z-score),[15],-0.039
same,glycan array binding signal (z-score),[16],-0.255
same,glycan array binding signal (z-score),[17],-0.111
same,glycan array binding signal (z-score),[18],-0.216
same,glycan array binding signal (z-score),[19],-0.261
same,glycan array binding signal (z-score),[20],-0.371
same,glycan array binding signal (z-score),[21],-0.557
same,glycan array binding signal (z-score),[22],-0.407
same,glycan array binding signal (z-score),[23],-0.134
same,glycan array binding signal (z-score),[24],-0.453
same,glycan array binding signal (z-score),[25],0.278
same,glycan array binding signal (z-score),[26],-0.288
same,glycan array binding signal (z-score),[27],-0.309
same,glycan array binding signal (z-score),[28],-0.388
same,glycan array binding signal (z-score),[29],-0.228
same,glycan array binding signal (z-score),[30],-0.416
same,glycan array binding signal (z-score),[31],-0.393
same,glycan array binding signal (z-score),[32],-0.517
same,glycan array binding signal (z-score),[33],-0.297
same,glycan array binding signal (z-score),[34],-0.25
same,glycan array binding signal (z-score),[35],-0.222
same,glycan array binding signal (z-score),[36],-0.433
same,glycan array binding signal (z-score),[37],-0.491
